Whole data set: some 33,000 sequences, median “E-score (-0.5 to 0.5)” near -0.035, cut for the highest 2% near 0.34. This is one part of the list.
biological target: T1, Mot3 (UniProt P54785); assay: PBM E-score (8-mer binding enrichment) (E-score (-0.5 to 0.5)); higher = stronger / more preferred TF binding; most listed sequences are background and not binding sites; conditions: protein concentration: 200 nM; construct: GST-full length
T1 sequence: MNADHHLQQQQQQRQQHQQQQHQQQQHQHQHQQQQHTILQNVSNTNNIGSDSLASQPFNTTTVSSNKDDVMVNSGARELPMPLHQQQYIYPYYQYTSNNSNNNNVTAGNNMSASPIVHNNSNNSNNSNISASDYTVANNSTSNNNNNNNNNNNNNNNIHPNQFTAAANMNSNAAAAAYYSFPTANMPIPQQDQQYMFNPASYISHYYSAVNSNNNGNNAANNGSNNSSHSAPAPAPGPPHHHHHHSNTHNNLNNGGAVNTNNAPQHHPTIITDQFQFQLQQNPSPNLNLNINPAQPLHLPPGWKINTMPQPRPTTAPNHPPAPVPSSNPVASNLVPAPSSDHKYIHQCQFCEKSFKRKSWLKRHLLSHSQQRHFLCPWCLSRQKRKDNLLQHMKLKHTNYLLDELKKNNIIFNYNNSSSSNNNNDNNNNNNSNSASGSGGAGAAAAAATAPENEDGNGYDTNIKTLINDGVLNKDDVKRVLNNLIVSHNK
Method: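 Universal 'all 10-mer' protein binding microarrays (Agilent AMADID 015681) probed with GST-tagged S. cerevisiae TFs (full-length or DBD) made by in vitro transcription/translation (PURExpress), about 100-200 nM. Bound TF was detected with fluorescent anti-GST. Each ungapped 8-mer (which stands for itself and its reverse complement) is scored by the PBM enrichment score (E-score), a modified Wilcoxon-Mann-Whitney statistic from -0.5 to +0.5, computed with the Universal PBM Analysis Suite. Scale: above 0.35 generally sequence-specific binding.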

Sequence | PBM E-score
ACCCTAGG | 0.0847
CCCATAAG | -0.233
CACCGACG | 0.066
GTTAGCAA | 0.0861
AGGCGAGC | -0.0541
GGGTATGA | -0.0865
CCAAAAGA | 0.0627
ATTCGGCG | -0.249
AGGCGTAT | 0.13
CGTACCTC | -0.144
ATATCCAC | -0.0283
AAATGAGC | 0.00391
CCCGGCGG | -0.374
CGTCGTCC | -0.192
GCTAACAC | 0.253
ACATGGGG | 0.233
GGCGAACA | -0.191
CAACGCAA | 0.256
GAGCGCTC | -0.331
ATAGAAAG | -0.107
GTTGGACA | 0.101
ATACCGCG | -0.159
ATTTATTG | 0.0307
AGTCGGAC | -0.0912
TACTATGA | -0.0335

Sequence | PBM E-score
AAAGTTAA | 0.112
GTTGCCTA | 0.488
CTGCCGCC | -0.274
CAAGTTGA | 0.107
GACCATCA | -0.141
CAATTCTC | -0.0479
GATCTCGC | -0.262
ATTGTGTC | 0.139
ACTTATAC | 0.0535
AAGTAAGT | 0.0115
AACGGCAG | -0.0848
CTTGAGAA | 0.0551
AACGTTCC | 0.194
GGAGTTTA | 0.109
ATTTCGTA | 0.15
ACAGATAG | 0.00406
ATGCACTC | -0.061
ATACCAAA | -0.00456
CCCCGCCC | -0.0577
AACTTCTC | -0.0237
CCGATTTC | -0.014
AACAGTAT | 0.0765
ACTTATGG | -0.197
CCATTGAG | -0.266
GCTGGGTA | -0.189

Sequence | PBM E-score
TACTGTCA | -0.12
AGGATTCA | -0.0361
ACCCCCCT | -0.22
CAACAATA | 0.223
CGCCTAAC | 0.152
CTACCGAA | -0.147
CTCCAAGA | -0.156
CTGGAGTC | -0.231
CGGCGCAG | -0.16
ACCCTCAT | -0.211
AGTACCAC | -0.0545
CCGGTTAG | -0.0697
GCTAGTGA | -0.136
GCCGATAC | -0.157
CGAAATGC | -0.0411
CACGCATC | 0.0401
ATACTCCG | -0.189
AACGAGTG | 0.115
TAACAGGA | 0.269
ACGCAAGT | 0.139
AGTTAGTC | -0.15
GTGCGACA | -0.148
AGGAATGA | 0.0383
CACTTCCG | -0.114
CGCGGGAC | -0.247

Sequence | PBM E-score
CATGGCAC | 0.0198
CGTATCGA | 0.069
CGTGGGCA | -0.152
CGTGAGAA | -0.0654
AACATTGA | 0.165
CCACTCGA | -0.0827
ACCCTCGT | 0.0213
ACTTCCCG | -0.128
GGCTAGTA | 0.0473
AGTTAGGA | 0.108
CTTTCCAC | -0.177
ACGTATAC | 0.17
AATTGCGC | 0.0861
CATGGTAA | 0.17
AACGGTTG | 0.072
ACTCCACA | 0.0701
ATTCGGGC | -0.093
CTACTCAC | 0.0243
AAAGTGAA | 0.0712
TCCCTAAA | -0.0605
GAGTATAA | 0.154
AGACGGAA | -0.247
ACGAATTA | 0.179
CGTTTTAA | 0.194
ACCAAAGG | 0.00751

Sequence | PBM E-score
CCCTGGTC | -0.315
CCCAATGC | -0.165
ACCTGAAT | 0.198
GCGCGGAC | 0.00829
GTAATTTA | 0.298
CGGATGGC | -0.204
ACATTTTA | 0.212
GCGTTCGA | 0.0844
CTAACTCA | -0.0373
ATCGAACA | -0.0411
CTAGATTC | -0.0736
CGGGCGGC | -0.243
GGCGCAAA | -0.0904
AGCCCAAA | -0.00593
CCCGCCAA | -0.243
GCCAGAGC | -0.314
CGTGGGTC | -0.178
AGAGGGAC | -0.159
ATGTTTCC | 0.211
CGAAGCGA | -0.297
AAACTCAA | 0.0815
ACAGCAGT | -0.0677
CCTGGTGA | -0.21
AAGTGACT | -0.208
AACCCGAC | -0.0189

Sequence | PBM E-score
CAATCTCC | -0.225
ATTATCTC | 0.0147
CAGTAGAG | -0.0196
CTGGCAAG | 0.0662
AGCTTATG | -0.002
ATTGTTAC | 0.256
TAAGGAAA | 0.424
CGGTTCGA | -0.147
AGAGCCGG | -0.145
AGCTCGCG | -0.124
ACGCCGAG | -0.205
AGGACGCG | -0.141
CACGACCG | -0.0329
GAGTCGGA | -0.259
GGTGCAAC | -0.19
ACGTCTGC | -0.201
ACAAGTTA | 0.131
AAAAGACG | 0.017
GAAAGCCC | -0.229
GCTCATAC | -0.0906
ATGAAGAA | 0.0946
CCTTAAAA | 0.158
ATCCATAG | -0.206
CCAGTATA | -0.178
ATCAAGCA | -0.0875

Sequence | PBM E-score
TATGACGA | -0.135
CTGCGGTC | -0.0645
AGTCTATG | -0.109
CCGATTCC | -0.15
CCATCGGG | -0.234
AGGTGCAG | -0.0615
AGTTGTGC | 0.0959
GGCTGGTA | -0.258
GATCCACC | -0.19
AACGTGGT | 0.161
AGAGCCCA | -0.0746
GAATTCTC | -0.17
ATACTGGC | -0.208
CCATTGCG | -0.214
CCCTATGA | -0.141
TCATTGGA | 0.0601
CTCATTAA | 0.0946
ATGCGGTG | -0.17
CCTTGAAA | 0.107
GAACCATA | -0.0833
TGAGACAA | -0.0961
AAGGCACT | 0.486

Source: the supplement of paper PMC3334620
